Values marked as one replicate rest on one cluster of the flow cell; about a third of the high ones do not repeat.
Tested on: ATP
Assay: switch fluorescence ratio, 500 uM ATP over buffer (Cy3 cluster intensity, sum of 5 cycles each) (fold (ratio)); higher = stronger signal-on switching upon ATP binding; sequences stand for … in TCGTCGGCAGCGTCAGATGTGTATAAGAGACAGTTTTTTTTTTTTTTTTTTTTTTTTT…TC
Details: aptamer strand: ATP DNA aptamer (quencher-CACCTGGGGGAGTATTGCGGAGGAAGG + anchor), 100 nM annealed; ATP concentration: 500 uM; one replicate
Outline: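 Per cluster, summed Cy3 intensity from the target cycles was divided by that from the buffer cycles to give the fluorescence ratio, then averaged per switch-domain sequence. Clusters outside 100-1000 RFU were excluded. The Cy3-labelled switching-strand clusters, on a modified Illumina MiSeq flow-cell, were annealed to 100 nM quencher-labelled ATP aptamer and imaged in selection buffer, then after 15 min with 500 uM ATP at 22 °C, for five cycles with NaOH stripping and re-annealing between them.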
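Note: ATP exposure 15 min at 22 °C before imaging.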

Row | Sequence | switch fluorescence ratio
1 | TCCCTGTGGC | 0.983
2 | TCCGAACACC | 1.54
3 | TCCGAAGACA | 2.75
4 | TCCGAGCTGG | 2.35
5 | TCCGATTGAC | 1.7
6 | TCCGCCCTTA | 1.32
7 | TCCGCGGCAA | 1.51
8 | TCCGCTGCTA | 6.36
9 | TCCGCTTTGT | 1.03
10 | TCCGGACTGA | 1.1
11 | TCCGGACTGG | 0.979
12 | TCCGGAGGTT | 1.16
13 | TCCGGCATCT | 1.12
14 | TCCGGCCATA | 1.53
15 | TCCGGCGAGG | 1.16
16 | TCCGGGAT | 1.44
17 | TCCGGGCATT | 1.12
18 | TCCGGGGGGA | 1.43
19 | TCCGGGTGAC | 1.52
20 | TCCGGTAAAG | 1.02
21 | TCCGGTACGA | 1.18
22 | TCCGGTGAGG | 0.936
23 | TCCGGTGTGC | 1.45
24 | TCCGTAAGTT | 1.1
25 | TCCGTATTCC | 1.32
26 | TCCGTCCGCT | 3.56

Row | Sequence | switch fluorescence ratio
27 | TCCGTTAAAG | 1.09
28 | TCCGTTCAGT | 0.968
29 | TCCGTTGACC | 1.19
30 | TCCGTTTCAG | 0.989
31 | TCCGTTTGGT | 1.01
32 | TCCTAAAGGT | 1.08
33 | TCCTAGAATG | 1.02
34 | TCCTAGTATT | 0.993
35 | TCCTATAGTA | 0.979
36 | TCCTCAACGG | 1.15
37 | TCCTCACTCA | 1.33
38 | TCCTCCTCGG | 2.33
39 | TCCTCCTGGT | 1.61
40 | TCCTCTCGAC | 3.72
41 | TCCTGATCTG | 1
42 | TCCTGCTTTT | 0.951
43 | TCCTGGATAG | 1.02
44 | TCCTGGATTT | 0.971
45 | TCCTGTGATT | 1.01
46 | TCCTGTGCTA | 3.82
47 | TCCTGTTCCA | 0.998
48 | TCCTGTTGGG | 0.984
49 | TCCTGTTTCG | 1
50 | TCCTTAGGGT | 0.987
51 | TCCTTCAGTT | 0.964
52 | TCCTTCCATC | 2.22

Row | Sequence | switch fluorescence ratio
53 | TCCTTCTCGG | 1.08
54 | TCCTTGAACC | 1.06
55 | TCCTTGGGCA | 1.08
56 | TCCTTTACAA | 1.35
57 | TCCTTTGTCC | 1.04
58 | TCCTTTTGCT | 0.965
59 | TCGAACCGCG | 0.995
60 | TCGAACGCCT | 1.33
61 | TCGAACGGT | 0.984
62 | TCGAACGTGC | 1.56
63 | TCGAACTACA | 1.08
64 | TCGAAGACCA | 1.03
65 | TCGAATCGGC | 0.964
66 | TCGAATGTGG | 1.02
67 | TCGAATTATG | 1
68 | TCGACAGAG | 0.956
69 | TCGACAGCGC | 1.25
70 | TCGACAGGGT | 0.997
71 | TCGACCCCGT | 1.1
72 | TCGACTATCA | 1.03
73 | TCGACTGGTA | 0.992
74 | TCGACTGTGG | 1
75 | TCGACTTGCG | 0.961
76 | TCGAGAAAT | 0.986
77 | TCGAGAACAA | 1.01
78 | TCGAGACTTG | 1.07

Row | Sequence | switch fluorescence ratio
79 | TCGAGAGTCG | 0.95
80 | TCGAGATCTG | 0.996
81 | TCGAGCCGGG | 0.937
82 | TCGAGGACAT | 1.07
83 | TCGAGGCCAG | 1.07
84 | TCGAGGGTTT | 0.95
85 | TCGAGGTCGT | 0.989
86 | TCGAGTAGAG | 1.02
87 | TCGAGTCTT | 0.96
88 | TCGAGTGTCA | 0.976
89 | TCGATAAGTG | 0.915
90 | TCGATCTTAT | 1.01
91 | TCGATGACCT | 1.1
92 | TCGATGTACC | 1.13
93 | TCGATTCGCA | 1.09
94 | TCGATTGCT | 0.976
95 | TCGATTGTTA | 0.998
96 | TCGATTTTTA | 0.947
97 | TCGCAAATCG | 1.81
98 | TCGCAGAAGC | 1.16
99 | TCGCAGAGCA | 1.09
100 | TCGCAGGACA | 1.28
101 | TCGCATAG | 2.63

— the supplement of paper PMC10126150
